From the supplement of paper PMC4604168 (melanoma cell lines)
Some of the results follow. Repeats are few or missing, and single values can be far off.

Test system: A101D
Assay: cell count relative to DMSO control; melanoma cells; higher = more viable cells
Details: library dose: standard library concentration; 72 h
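Note: cells treated in 1,536-well plates, then fixed and DAPI-stained, with nuclei counted from automated high-throughput microscope images.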

**Q.** How did the cell count turn out when `CS(=O)(=O)c1ccc(C(=O)Nc2ccc(Cl)c(-c3ccccn3)c2)c(Cl)c1` [vismodegib] + Cc1cc(N2CCOCC2)cc2[nH]c(-c3c(NC[C@@H](O)c4cccc(Cl)c4)cc[nH]c3=O)nc12 [BMS536924] (first compound 5 µM, partner dose 1 µM) was run?
**A.** Its cell count is 110%.

**Q.** How did the cell count turn out when `CN(c1ncccc1CNc1nc(Nc2ccc3c(c2)CC(=O)N3)ncc1C(F)(F)F)S(C)(=O)=O` + C[C@]1(c2nc3c(C(N)=O)cccc3[nH]2)CCCN1 [Veliparib] (first compound 0.4 µM, partner dose 7 µM) was run?
**A.** Its cell count is 91.8%.

**Q.** With `CS(=O)(=O)c1ccc(C(=O)Nc2ccc(Cl)c(-c3ccccn3)c2)c(Cl)c1` [vismodegib] + Nc1cccc2c1CN(C1CCC(=O)NC1=O)C2=O [lenalidomide] (first compound 5 µM, partner dose 5 µM) as the compound, how does the cell count read?
**A.** The cell count was 119%.

**Q.** How did the cell count turn out when `C=C(c1ccc(C(=O)O)cc1)c1cc2c(cc1C)C(C)(C)CCC2(C)C` [Bexarotene] + C=CCNC1=C2C[C@@H](C)C[C@H](OC)[C@H](O)[C@@H](C)/C=C(\C)[C@H](OC(N)=O)[C@@H](OC)/C=C\C=C(/C)C(=O)NC(=CC1=O)C2=O [Tanespimycin] (first compound 10 µM, partner dose 0.01 µM) was run?
**A.** Its cell count is 87.4%.

**Q.** Which cell count does the source give for `NC1(c2ccc(-c3nc4ccn5c(=O)[nH]nc5c4cc3-c3ccccc3)cc2)CCC1` + Cn1c(=O)n(-c2ccc(C(C)(C)C#N)cc2)c2c3cc(-c4cnc5ccccc5c4)ccc3ncc21 [NVP-BEZ235] (first compound 2 µM, partner dose 0.02 µM) here?
**A.** Its cell count is 47.4%.

**Q.** For `CN(c1ncccc1CNc1nc(Nc2ccc3c(c2)CC(=O)N3)ncc1C(F)(F)F)S(C)(=O)=O` + O=C(Nc1cccc(Cl)c1)Nc1ncc(CCNc2ncnc3ccsc23)s1 [SNS314] (first compound 0.4 µM, partner dose 0.004 µM), which cell count is on record?
**A.** Its cell count is 59.8%.

**Q.** How did the cell count turn out when `CCCS(=O)(=O)Nc1ccc(F)c(C(=O)c2c[nH]c3ncc(Cl)cc23)c1F` + CC(C)(C)c1cnc(CSc2cnc(NC(=O)C3CCNCC3)s2)o1 [SNS-032] (first compound 0.4 µM, partner dose 0.05 µM) was run?
**A.** Its cell count is 53.9%.

**Q.** Which cell count does the source give for `CN(c1ncccc1CNc1nc(Nc2ccc3c(c2)CC(=O)N3)ncc1C(F)(F)F)S(C)(=O)=O` + C[C@@H]1CCN(C(=O)CC#N)C[C@@H]1N(C)c1ncnc2[nH]ccc12 [CP690550] (first compound 0.4 µM, partner dose 5 µM) here?
**A.** The cell count was 91.2%.

**Q.** How did the cell count turn out when `NC1(c2ccc(-c3nc4ccn5c(=O)[nH]nc5c4cc3-c3ccccc3)cc2)CCC1` + CO[C@@H]1[C@H](N(C)C(=O)c2ccccc2)C[C@H]2O[C@]1(C)n1c3ccccc3c3c4c(c5c6ccccc6n2c5c31)C(=O)NC4 [Midostaurin] (first compound 2 µM, partner dose 0.4 µM) was run?
**A.** The cell count was 65.6%.

**Q.** `C=C(c1ccc(C(=O)O)cc1)c1cc2c(cc1C)C(C)(C)CCC2(C)C` [Bexarotene] + Cn1c(Nc2ccc(C(F)(F)F)cc2)nc2cc(Oc3ccnc(-c4ncc(C(F)(F)F)[nH]4)c3)ccc21 [CHIR265] (first compound 10 µM, partner dose 0.4 µM) was tested. Which cell count did it give?
**A.** Its cell count is 54.9%.

**Q.** `CCCS(=O)(=O)Nc1ccc(F)c(C(=O)c2c[nH]c3ncc(Cl)cc23)c1F` + O=C(Nc1cccc(Cl)c1)Nc1ncc(CCNc2ncnc3ccsc23)s1 [SNS314] (first compound 0.4 µM, partner dose 0.004 µM) was tested. Which cell count did it give?
**A.** The cell count was 76%.

**Q.** `NC1(c2ccc(-c3nc4ccn5c(=O)[nH]nc5c4cc3-c3ccccc3)cc2)CCC1` + CC(C)(C)c1cnc(CSc2cnc(NC(=O)C3CCNCC3)s2)o1 [SNS-032] (first compound 2 µM, partner dose 0.05 µM) was tested. Which cell count did it give?
**A.** Its cell count is 64%.

**Q.** For `CN(c1ncccc1CNc1nc(Nc2ccc3c(c2)CC(=O)N3)ncc1C(F)(F)F)S(C)(=O)=O` + Cc1nc(Nc2ncc(C(=O)Nc3c(C)cccc3Cl)s2)cc(N2CCN(CCO)CC2)n1 [dasatanib] (first compound 0.4 µM, partner dose 0.02 µM), which cell count is on record?
**A.** The cell count was 52.9%.

**Q.** For `NC1(c2ccc(-c3nc4ccn5c(=O)[nH]nc5c4cc3-c3ccccc3)cc2)CCC1` + CNC(=O)c1cc(Oc2ccc(NC(=O)Nc3ccc(Cl)c(C(F)(F)F)c3)cc2)ccn1 [sorafenib] (first compound 2 µM, partner dose 2 µM), which cell count is on record?
**A.** The cell count was 90.1%.

**Q.** Which cell count does the source give for `NC1(c2ccc(-c3nc4ccn5c(=O)[nH]nc5c4cc3-c3ccccc3)cc2)CCC1` + C[C@@H]1CCN(C(=O)CC#N)C[C@@H]1N(C)c1ncnc2[nH]ccc12 [CP690550] (first compound 2 µM, partner dose 5 µM) here?
**A.** Its cell count is 68.5%.

**Q.** `CCCS(=O)(=O)Nc1ccc(F)c(C(=O)c2c[nH]c3ncc(Cl)cc23)c1F` + COc1ccc(Cl)c(Nc2nc3ccccc3nc2NS(=O)(=O)c2cccc(NC(=O)C(C)(C)N)c2)c1 [XL147] (first compound 0.4 µM, partner dose 4 µM) was tested. Which cell count did it give?
**A.** The cell count was 75%.

**Q.** How did the cell count turn out when `CCCS(=O)(=O)Nc1ccc(F)c(C(=O)c2c[nH]c3ncc(Cl)cc23)c1F` + CC(=O)c1c(C)c2cnc(Nc3ccc(N4CCNCC4)cn3)nc2n(C2CCCC2)c1=O [palbociclib] (first compound 0.4 µM, partner dose 0.2 µM) was run?
**A.** The cell count was 60%.

**Q.** For `CCCS(=O)(=O)Nc1ccc(F)c(C(=O)c2c[nH]c3ncc(Cl)cc23)c1F` + C#Cc1cccc(Nc2ncnc3cc(OCCOC)c(OCCOC)cc23)c1 [erlotinib] (first compound 0.4 µM, partner dose 4 µM), which cell count is on record?
**A.** Its cell count is 67.8%.

**Q.** `C=C(c1ccc(C(=O)O)cc1)c1cc2c(cc1C)C(C)(C)CCC2(C)C` [Bexarotene] + Cc1cc(N2CCOCC2)cc2[nH]c(-c3c(NC[C@@H](O)c4cccc(Cl)c4)cc[nH]c3=O)nc12 [BMS536924] (first compound 10 µM, partner dose 1 µM) was tested. Which cell count did it give?
**A.** Its cell count is 98.4%.

**Q.** `CS(=O)(=O)c1ccc(C(=O)Nc2ccc(Cl)c(-c3ccccn3)c2)c(Cl)c1` [vismodegib] + CCCS(=O)(=O)Nc1ccc(F)c(C(=O)c2c[nH]c3ncc(Cl)cc23)c1F [PLX4720] (first compound 5 µM, partner dose 0.4 µM) was tested. Which cell count did it give?
**A.** The cell count was 85.9%.

**Q.** For `CCCS(=O)(=O)Nc1ccc(F)c(C(=O)c2c[nH]c3ncc(Cl)cc23)c1F` + COc1cc2c(Oc3ccc4[nH]c(C)cc4c3F)ncnc2cc1OCCCN1CCCC1 [cediranib] (first compound 0.4 µM, partner dose 2 µM), which cell count is on record?
**A.** The cell count was 65.4%.

**Q.** `CS(=O)(=O)c1ccc(C(=O)Nc2ccc(Cl)c(-c3ccccn3)c2)c(Cl)c1` [vismodegib] + COc1cc(Nc2ncc(F)c(Nc3ccc4c(n3)NC(=O)C(C)(C)O4)n2)cc(OC)c1OC [Tamatinib] (first compound 5 µM, partner dose 2 µM) was tested. Which cell count did it give?
**A.** Its cell count is 44.1%.

**Q.** For `C=C(c1ccc(C(=O)O)cc1)c1cc2c(cc1C)C(C)(C)CCC2(C)C` [Bexarotene] + NCC(=O)Nc1ccc(-n2nc(C(F)(F)F)cc2-c2ccc3c(ccc4ccccc43)c2)cc1 [OSU03012] (first compound 10 µM, partner dose 5 µM), which cell count is on record?
**A.** The cell count was 15.8%.

**Q.** `CN(c1ncccc1CNc1nc(Nc2ccc3c(c2)CC(=O)N3)ncc1C(F)(F)F)S(C)(=O)=O` + Cn1c(=O)n(-c2ccc(C(C)(C)C#N)cc2)c2c3cc(-c4cnc5ccccc5c4)ccc3ncc21 [NVP-BEZ235] (first compound 0.4 µM, partner dose 0.02 µM) was tested. Which cell count did it give?
**A.** Its cell count is 58.4%.

**Q.** Which cell count does the source give for `CN(c1ncccc1CNc1nc(Nc2ccc3c(c2)CC(=O)N3)ncc1C(F)(F)F)S(C)(=O)=O` + OCCn1cc(-c2cnc3nnn(Cc4ccc5ncccc5c4)c3n2)cn1 [PF04217903] (first compound 0.4 µM, partner dose 5 µM) here?
**A.** Its cell count is 62.8%.

**Q.** `CS(=O)(=O)c1ccc(C(=O)Nc2ccc(Cl)c(-c3ccccn3)c2)c(Cl)c1` [vismodegib] + O=C(Nc1cccc(Cl)c1)Nc1ncc(CCNc2ncnc3ccsc23)s1 [SNS314] (first compound 5 µM, partner dose 0.004 µM) was tested. Which cell count did it give?
**A.** Its cell count is 90.2%.

**Q.** With `CN(c1ncccc1CNc1nc(Nc2ccc3c(c2)CC(=O)N3)ncc1C(F)(F)F)S(C)(=O)=O` + C=C(c1ccc(C(=O)O)cc1)c1cc2c(cc1C)C(C)(C)CCC2(C)C [Bexarotene] (first compound 0.4 µM, partner dose 10 µM) as the compound, how does the cell count read?
**A.** Its cell count is 83.6%.

**Q.** For `NC1(c2ccc(-c3nc4ccn5c(=O)[nH]nc5c4cc3-c3ccccc3)cc2)CCC1` + Nc1nc(F)nc2c1ncn2[C@@H]1O[C@H](CO)[C@@H](O)[C@@H]1O [fludarabine] (first compound 2 µM, partner dose 1 µM), which cell count is on record?
**A.** Its cell count is 74.4%.

**Q.** How did the cell count turn out when `NC1(c2ccc(-c3nc4ccn5c(=O)[nH]nc5c4cc3-c3ccccc3)cc2)CCC1` + CS(=O)(=O)CCNCc1ccc(-c2ccc3ncnc(Nc4ccc(OCc5cccc(F)c5)c(Cl)c4)c3c2)o1 [lapatinib] (first compound 2 µM, partner dose 4 µM) was run?
**A.** Its cell count is 45.2%.

**Q.** With `CN(c1ncccc1CNc1nc(Nc2ccc3c(c2)CC(=O)N3)ncc1C(F)(F)F)S(C)(=O)=O` + Cc1cc(N2CCOCC2)cc2[nH]c(-c3c(NC[C@@H](O)c4cccc(Cl)c4)cc[nH]c3=O)nc12 [BMS536924] (first compound 0.4 µM, partner dose 1 µM) as the compound, how does the cell count read?
**A.** Its cell count is 127%.

**Q.** Which cell count does the source give for `CS(=O)(=O)c1ccc(C(=O)Nc2ccc(Cl)c(-c3ccccn3)c2)c(Cl)c1` [vismodegib] + COc1cc2c(Oc3ccc4[nH]c(C)cc4c3F)ncnc2cc1OCCCN1CCCC1 [cediranib] (first compound 5 µM, partner dose 2 µM) here?
**A.** Its cell count is 118%.
